MIC by broth microdilution (CLSI, 0.25-128 µg/mL, 18 h, 37 °C) of Gram-negative wastewater isolates picked on carbapenem-selective plates; higher = less susceptible. No active / inactive call. Isolates were selected for resistance.
Tests used:
Experiment in all cases: Broth microdilution (CLSI), cation-adjusted Mueller-Hinton broth, two-fold steps from 0.25 to 128 µg/mL, 18 h at 37 °C.
Imipenem = compound: C[C@@H](O)[C@H]1C(=O)N2C(C(=O)O)=C(SCCNC=N)C[C@H]12 [Imipenem]
Ertapenem = compound: C[C@@H](O)[C@H]1C(=O)N2C(C(=O)O)=C(S[C@@H]3CN[C@H](C(=O)Nc4cccc(C(=O)O)c4)C3)[C@H](C)[C@H]12 [Ertapenem]
Meropenem = compound: C[C@@H](O)[C@H]1C(=O)N2C(C(=O)O)=C(S[C@@H]3CN[C@H](C(=O)N(C)C)C3)[C@H](C)[C@H]12 [Meropenem]

Test System | MIC (Imipenem) | MIC (Ertapenem) | MIC (Meropenem)
Escherichia coli isolate secondary sludge #40 (carbapenemase genes (PCR): KPC) | 64 µg/mL | 32 µg/mL | 64 µg/mL
Kluyvera cryocrescens isolate secondary sludge #46 (carbapenemase genes (PCR): KPC) | 32 µg/mL | 16 µg/mL | 64 µg/mL
Klebsiella oxytoca isolate secondary sludge #198 (carbapenemase genes (PCR): KPC) | 16 µg/mL | 8 µg/mL | 64 µg/mL
Klebsiella oxytoca isolate primary sludge #227 (carbapenemase genes (PCR): KPC) | 64 µg/mL | 32 µg/mL | 64 µg/mL
Klebsiella variicola isolate primary sludge #95 (carbapenemase genes (PCR): GES) | 32 µg/mL | 32 µg/mL | 64 µg/mL
Klebsiella pneumoniae isolate secondary sludge #185 (carbapenemase genes (PCR): KPC) | 16 µg/mL | 8 µg/mL | 32 µg/mL
Klebsiella oxytoca isolate primary sludge #209 (carbapenemase genes (PCR): GES) | 16 µg/mL | 4 µg/mL | 16 µg/mL
Enterobacter bugandensis isolate sewage #25 (carbapenemase genes (PCR): KPC) | 128 µg/mL | 64 µg/mL | 128 µg/mL
Citrobacter freundii isolate primary sludge #140 (carbapenemase genes (PCR): OXA-48+KPC) | 16 µg/mL | 8 µg/mL | 32 µg/mL
Enterobacter asburiae isolate sewage #63 (carbapenemase genes (PCR): KPC) | 32 µg/mL | 64 µg/mL | 32 µg/mL
Acinetobacter johnsonii isolate sewage #226 (carbapenemase genes (PCR): IMP) | 16 µg/mL | 8 µg/mL | 64 µg/mL
Klebsiella pneumoniae isolate primary sludge #252 (carbapenemase genes (PCR): OXA-48) | 8 µg/mL | 8 µg/mL | 16 µg/mL
Klebsiella pneumoniae isolate primary sludge #196 (carbapenemase genes (PCR): KPC) | 32 µg/mL | 32 µg/mL | 64 µg/mL
Klebsiella oxytoca isolate sewage #202 (carbapenemase genes (PCR): KPC) | 16 µg/mL | 32 µg/mL | 64 µg/mL
